Several values for one entry are separate records, joined by “and”; a condition that tells them apart may be missing. Equal values may be shown once. Some of the results follow. Many values rest on one well or one pass, so single values are uncertain.
Tests used:
[1] = system: SARS-CoV-2 nsp3 SARS-unique domain core (SUD-core, nsp3 residues 413-676); experiment: dissociation rate constant koff (BLI); higher = faster dissociation; conditions: 100 µM; 25 °C
[2] = system: SARS-CoV-2 nsp3 SARS-unique domain core (SUD-core, nsp3 residues 413-676); experiment: apparent dissociation constant Kd (single-concentration BLI fit); higher = weaker binding; conditions: 100 µM; 25 °C

SMILES | dissociation rate constant koff [1] | apparent dissociation constant Kd [2]
COc1ccc(Cl)c(Nc2ncnc3cc(OCC4CCN(C)CC4)c(OC)cc23)c1 | 0.279 s⁻¹ | 139 µM
Nc1ncnc2c1ncn2[C@@H]1O[C@H](COS(=O)(=O)NC(=O)[C@@H](N)CC(=O)O)[C@@H](O)[C@H]1O | 0.024 s⁻¹ | 97 µM
COc1cc2ncnc(Nc3ccccc3)c2cc1OC | 0.486 s⁻¹ | 397 µM
C=CC(=O)Nc1ccc(C(=O)Nc2n[nH]c3c2CN(C(=O)N[C@H](CN(C)C)c2ccccc2)C3(C)C)cc1 | 0.116 s⁻¹ | 160 µM
N#CC(c1ccnc(OCc2ccc(CN3CCOCC3)cc2)n1)c1nc2ccccc2s1 (stereo unspecified) | 0.0169 s⁻¹ | 89.5 µM
Nc1ncnc2nc(-c3ccc(N4CCOCC4)nc3)cc(-c3cccc(Br)c3)c12 | 0.144 s⁻¹ | 3680 µM
COc1ccc2c(c1)c(C1=C(c3c[nH]c4ccccc34)C(=O)NC1=O)cn2CCCN(C)C | 0.187 s⁻¹ | 142 µM
CN(C)Cc1cccc(N=C(c2ccccc2)c2c(O)[nH]c3cc(C(N)=O)ccc23)c1 | 0.0552 s⁻¹ | 96 µM
C[C@@H](c1ccc(F)cc1)n1nnc2cnc3ccc(-c4ccc5ocnc5c4)cc3c21 | 0.0332 s⁻¹ | 13600 µM
O=c1[nH]cc(F)c(=O)[nH]1 | 0.00736 s⁻¹ | 25.5 µM
O=C1NC(=O)/C(=C/c2ccc(-c3ccc(F)cc3O)o2)S1 | 0.165 s⁻¹ | 418 µM
COc1nn(C)cc1Nc1nccc(-c2c[nH]c3c(NC(=O)[C@@H](C)N4CCN(C)CC4)cccc23)n1 | 0.329 s⁻¹ | 129 µM
CC(C)c1cnc(-c2cc(Cl)ccc2F)cc1Nc1ccncc1C(=O)NC(CO)CO | 0.216 s⁻¹ | 2710 µM
O=c1[nH]c2ccc(Cl)cc2c(N[C@@H]2CN3CCC2CC3)c1-c1nc2ccccc2[nH]1 | 0.396 s⁻¹ | 2410 µM
C[C@@H](Nc1ncnc2[nH]c(-c3ccc(O)cc3)cc12)c1ccccc1 | 0.409 s⁻¹ | 1840 µM
Nc1ncnc2c1nc(Br)n2[C@@H]1O[C@@H]2COP(=O)(O)O[C@H]2[C@H]1O | 0.0104 s⁻¹ | 69.1 µM
CCCS(=O)(=O)NC1CC(N(C)c2ncnc3[nH]ccc23)C1 (stereo unspecified) | 0.262 s⁻¹ | 3730 µM
Cc1nc2c(NCc3cccc(S(C)(=O)=O)c3)nccn2c1-c1ccc(O)c(F)c1 | 1.14 s⁻¹ | 1760 µM
O=C1NC(=O)C(c2cn(-c3ccccc3)nc2-c2ccc(F)cc2)N1 (stereo unspecified) | 1.42 s⁻¹ | 1170 µM

SMILES | dissociation rate constant koff [1] | apparent dissociation constant Kd [2]
O=c1c(O)c(-c2ccc(O)c(O)c2)oc2cc(O)c(O)c(O)c12 | 0.0018 s⁻¹ | 6.28 µM
CN1CCN(c2ccc(C(=O)Nc3cc(-c4cccc(NS(=O)(=O)c5ccccc5)c4)[nH]n3)cc2)CC1 | 0.0334 s⁻¹ | 72.5 µM
CCC(=O)NC1CCC(N2C(=O)N(c3ccccc3Cl)Cc3cnc(Nc4ccc(N5CCN(C)CC5)c(C)c4)nc32)CC1 (stereo unspecified) | 0.474 s⁻¹ | 3390 µM
CC1=C(CC(=O)O)c2cc(F)ccc2/C1=C\c1ccc(C(C)C)cc1 | 0.362 s⁻¹ | 3030 µM
COc1ccc2[nH]cc(/C=C3\C(=O)Nc4ccc(NC(=O)CCN5CCCCC5)cc43)c2c1 | 0.376 s⁻¹ | 2510 µM
C=CC(=O)N1C[C@H](Nc2ncnc3[nH]ccc23)CC[C@@H]1C | 0.718 s⁻¹ | 315 µM
CNc1nc(-c2ccc3c(N)n[nH]c3c2)cc(N2C[C@@H](C(=O)NC3CCCCC3)CC[C@H]2C)n1 | 0.281 s⁻¹ | 3510 µM
NCC(=O)NS(=O)(=O)OC[C@H]1O[C@@H](n2cnc3c(N)ncnc32)[C@H](O)[C@@H]1O | 0.0107 s⁻¹ | 38.2 µM
Cc1cn([C@H]2C[C@@H](N=[N+]=[N-])[C@@H](CO)O2)c(=O)[nH]c1=O | 0.0257 s⁻¹ | 1540 µM
NC(=O)c1ccc(-c2nc(-c3ccc4c(c3)OCCO4)c(-c3ccccn3)[nH]2)cc1 | 0.0722 s⁻¹ | 47.8 µM
Cc1ncc(NC(=O)c2cccc(C(F)(F)F)c2)cc1-c1cnc(OC2CCOCC2)c(N2CCOCC2)c1 | 0.125 s⁻¹ | 80.6 µM
N#C/C(=C(/N)Sc1ccc(N)cc1)c1ccccc1C(F)(F)F | 0.655 s⁻¹ | 1700 µM
Cc1cc(Nc2ncc(Cl)c(Nc3ccccc3S(=O)(=O)C(C)C)n2)c(OC(C)C)cc1C1CCNCC1 | 0.0458 s⁻¹ and 0.0643 s⁻¹ | 14100 µM and 12000 µM
CCc1cc(O)c(F)cc1-c1ccc2c(-c3nc4c([nH]3)CN(C3CCN(C)CC3)CC4)n[nH]c2c1 | 0.105 s⁻¹ | 154 µM
NC1(Cc2ccc(Cl)cc2)CCN(c2ncnc3[nH]ccc23)CC1 | 0.755 s⁻¹ | 1070 µM
N#Cc1cccc(-c2c[nH]c3ncnc(N4CCOCC4)c23)c1 | 1.39 s⁻¹ | 1230 µM
O=C(CCCCCn1cc(Nc2ncc(Cl)c(Nc3ccc(Cl)cc3)n2)cn1)NO | 0.412 s⁻¹ | 2130 µM
CC(C)(O)c1cc2nc(-c3cnc(N)nc3)nc(N3CCOCC3)c2s1 | 0.226 s⁻¹ | 342 µM
COC(=O)N[C@@H](C)CNc1nccc(-c2cn(C(C)C)nc2-c2cc(Cl)cc(NS(C)(=O)=O)c2F)n1 | 0.713 s⁻¹ | 1810 µM

Source: the supplement of paper PMC10326071
